From the BET-seq Pho4 binding data (Le et al. 2018)
This is one part of the list. These are noisy estimates, calculated here from bound and input reads.

Biological target: T1, Pho4 (S. cerevisiae) (UniProt P07270)
T1 sequence: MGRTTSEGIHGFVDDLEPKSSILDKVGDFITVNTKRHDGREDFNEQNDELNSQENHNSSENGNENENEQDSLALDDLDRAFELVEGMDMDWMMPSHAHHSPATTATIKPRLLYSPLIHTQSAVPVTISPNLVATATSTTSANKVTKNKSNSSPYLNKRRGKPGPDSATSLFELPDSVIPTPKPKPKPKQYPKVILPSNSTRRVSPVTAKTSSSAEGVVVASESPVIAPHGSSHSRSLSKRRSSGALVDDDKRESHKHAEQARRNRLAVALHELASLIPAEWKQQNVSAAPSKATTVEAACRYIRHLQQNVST
Experiment: relative binding free energy (BET-seq); higher = weaker binding
Settings: reference: library average

Relative binding free energy, 0.38 kcal/mol:
TAGTACACGTGAGATG

Relative binding free energy, 0.33 kcal/mol:
TCGGTCACGTGAAAGG, TTATTCACGTGTTCCG

Relative binding free energy, 0.01 kcal/mol:
TGTTACACGTGGTCGT, TTTCTCACGTGGTCTG, TTGTGCACGTGGAGTC, TGTCACACGTGTCGTT

Relative binding free energy, 0.41 kcal/mol:
TAAATCACGTGAATTT, GGGGACACGTGACGGA

Relative binding free energy, 0.07 kcal/mol:
TGGATCACGTGTCATT, TCTGTCACGTGCGGGA, GAGATCACGTGGGGCT, CTTGTCACGTGGGTTT, TAAGTCACGTGGTATG, CGACTCACGTGGGTTG, CTGGGCACGTGAGAGT, TTTAACACGTGTCGAG, TATGGCACGTGTAAAG, TACGTCACGTGGGGGC

Relative binding free energy, 0 kcal/mol:
AGGAGCACGTGTCGGA, CTGTGCACGTGTGGAT, TCGGGCACGTGAGTTG, GGGGACACGTGGGGGG, GGGCCCACGTGTTTGG

Relative binding free energy, -0.04 kcal/mol:
TTGAACACGTGTAATG, GAGCGCACGTGGTATG, CATTCCACGTGGGGTT, TCGGGCACGTGATCGT, TGAGGCACGTGATGGG, AATGTCACGTGGTATA, AATTGCACGTGTCTTT

Relative binding free energy, 0.43 kcal/mol:
AGGATCACGTGAAATG

Relative binding free energy, -0.07 kcal/mol:
CGTAGCACGTGGAGAG, TTATGCACGTGGGTTT, GTTAGCACGTGTTATG, GAGGGCACGTGTGTCT

Relative binding free energy, 0.22 kcal/mol:
TGTTTCACGTGGTGTG, CTGTGCACGTGAAGGA, TCTGTCACGTGTAAGT, AAGTGCACGTGAGTGA

Relative binding free energy, 0.29 kcal/mol:
TATCTCACGTGTTAGA, GAGTTCACGTGTGAGG

Relative binding free energy, 0.27 kcal/mol:
TATCACACGTGATGGG, CGGGTCACGTGAGGGA, ATTTTCACGTGTGCTT, CGCGGCACGTGAGGGA

Relative binding free energy, 0.1 kcal/mol:
ATGTGCACGTGATTGC, ATCGGCACGTGTTATT, ATTTACACGTGATTGA, TGTTACACGTGTTATT

Relative binding free energy, 0.4 kcal/mol:
GAGATCACGTGATGGT, GAGTTCACGTGGGTCG

Relative binding free energy, 0.04 kcal/mol:
ATCTACACGTGTGTTG, GCTGTCACGTGCGTGT, ATTGTCACGTGGCAGT, ATTTGCACGTGCTTGC, ATGTCCACGTGTCGGT, TGAGTCACGTGGAAGT, AGGGACACGTGTGTGA

Relative binding free energy, 0.54 kcal/mol:
GGATTCACGTGAGAGG

Relative binding free energy, -0.22 kcal/mol:
AGAGGCACGTGCGTGG, AAGGGCACGTGCGGGC

Relative binding free energy, 0.23 kcal/mol:
GCATACACGTGATGGG, GAGTCCACGTGAGGGG

Relative binding free energy, 0.12 kcal/mol:
GGGGTCACGTGGTGTT, TTGGTCACGTGTTAGA, GTTTGCACGTGGATTT

Relative binding free energy, 0.16 kcal/mol:
GTGGTCACGTGTATAG, TCTTTCACGTGCGGGT, TGTGTCACGTGTTGAA, GTGTCCACGTGTGAGA, CTGTTCACGTGGGTTA

Relative binding free energy, -0.21 kcal/mol:
AGATGCACGTGGGGCA

Relative binding free energy, 0.17 kcal/mol:
GGTATCACGTGGCCGT, CTATTCACGTGTGTAG, GTTCTCACGTGGCGTT, AGATGCACGTGATGGA, GTGTTCACGTGCTCTG, GCTATCACGTGTGCGG

Relative binding free energy, -0.11 kcal/mol:
TAGTCCACGTGGTGTA, TTTAACACGTGGTATG

Relative binding free energy, -0.06 kcal/mol:
TTGAACACGTGGTTGC, TTAAACACGTGGTGAT, TGCAGCACGTGGAGTT, CGTAACACGTGTTATG, TTACACACGTGGTTGG, AGAAGCACGTGGTTTG, TGGAACACGTGTTTTA

Relative binding free energy, 0.31 kcal/mol:
TAGGTCACGTGTAGCG, TTGTTCACGTGGTAGG, GTAATCACGTGAGGGC, TGTCTCACGTGTCAGT, ATCGTCACGTGTAAAG

Relative binding free energy, 0.35 kcal/mol:
GATTACACGTGAGGGG

Relative binding free energy, 0.19 kcal/mol:
GAAGTCACGTGGTAAT

Relative binding free energy, 0.08 kcal/mol:
GAGTGCACGTGTCAGG, GTGTGCACGTGTCAGT, ACGATCACGTGTTTGG, TCTTGCACGTGTGGGT, TGTATCACGTGGTGGT

Relative binding free energy, 0.21 kcal/mol:
TGTTGCACGTGAGATT, CGGTCCACGTGTGGCT, TCAAGCACGTGAGGTG, TTGTACACGTGTTGAT, AGTTGCACGTGAATTA, TAGGACACGTGAGTCG

Relative binding free energy, -0.08 kcal/mol:
TTCACCACGTGGTGGT, GCATGCACGTGGGTGT, TGTCTCACGTGGGATG

Relative binding free energy, -0.13 kcal/mol:
GTTCGCACGTGGTGTC, GGGGGCACGTGTATAG

Relative binding free energy, 0.05 kcal/mol:
GAGGGCACGTGATGGG, GATATCACGTGGGTAG, GCGTACACGTGTGTGG, AGAGTCACGTGCGTGG

Relative binding free energy, -0.02 kcal/mol:
GTTGGCACGTGTCCGT, TGCGGCACGTGTGAAG, TTTAACACGTGTACTT, CCGGTCACGTGGTGTA

Relative binding free energy, -0.24 kcal/mol:
GTGGCCACGTGGGTAT

Relative binding free energy, -0.18 kcal/mol:
GCCGGCACGTGCGGGG, TAGGGCACGTGATGCA

Relative binding free energy, 0.2 kcal/mol:
ATAGTCACGTGATTTT, GTCTTCACGTGCGGTG, TTCGACACGTGTTTAT

Relative binding free energy, -0.14 kcal/mol:
TTGCGCACGTGGGGAC

Relative binding free energy, 0.03 kcal/mol:
AACTGCACGTGTGGGT, GTGTGCACGTGCAGTT, GTTATCACGTGGGGCG

Relative binding free energy, 0.37 kcal/mol:
GAAATCACGTGGTAAT, TCATTCACGTGAGTTT, GTGATCACGTGAGGTT

Relative binding free energy, 0.02 kcal/mol:
GGTATCACGTGCTTGG, AATATCACGTGGTAGT, AGTAGCACGTGTAGGG, TCAGGCACGTGTGAAT, AGGGGCACGTGAGGCT, TCAGTCACGTGTGGTT, CTAATCACGTGGTTAG

Relative binding free energy, 0.39 kcal/mol:
GAGGTCACGTGGAAAT, TCGTTCACGTGAGTGG

Relative binding free energy, 0.14 kcal/mol:
CTTTTCACGTGAGGTA, TAAGTCACGTGTTGTG, CGATTCACGTGGTAGG, GTGTCCACGTGATTTT

Relative binding free energy, 0.11 kcal/mol:
TGTATCACGTGGATTA, TGTGTCACGTGTGCCG, CAGGACACGTGGTTAG, TGGGACACGTGACGTG, CTAGGCACGTGAGTGG

Relative binding free energy, 0.42 kcal/mol:
CAGTTCACGTGTATCG, GTCTTCACGTGTTTCG

Relative binding free energy, -0.09 kcal/mol:
GAGTCCACGTGCGGGG, TATTGCACGTGGGAAG, TGTCGCACGTGTCATG, ACGGTCACGTGCGTGT

Relative binding free energy, 0.15 kcal/mol:
CGGGGCACGTGAGTGT, TCCTACACGTGTGGGT, AAACTCACGTGTGTGT, CTTATCACGTGGCGGT

Relative binding free energy, -0.17 kcal/mol:
ATGGGCACGTGCTTTT, CCTGGCACGTGGGGGC, TGTACCACGTGGGGAA

Relative binding free energy, 0.5 kcal/mol:
GGGATCACGTGAGAAT

Relative binding free energy, 0.24 kcal/mol:
AATGTCACGTGATAAT, GCGTTCACGTGGTCGT, TATGGCACGTGAAGTC, ATATTCACGTGCGTTT, TGATTCACGTGGACTT

Relative binding free energy, -0.15 kcal/mol:
TGTCGCACGTGGCCGG, GTGGGCACGTGTGCAT

Relative binding free energy, 0.13 kcal/mol:
TGGGTCACGTGGCTTT, GTGTACACGTGTTTGG, TCTTGCACGTGTAGTT, GGCATCACGTGGTGCT, TTAGTCACGTGTTTAA

Relative binding free energy, 0.34 kcal/mol:
GACTGCACGTGATGGG, GTTTGCACGTGTAAGC, TTAGTCACGTGGAAAC

Relative binding free energy, -0.19 kcal/mol:
TTATACACGTGTATAG, GGAAACACGTGGGGGT

Relative binding free energy, 0.26 kcal/mol:
TTGGACACGTGAGTGG, TGACTCACGTGAGTGT, AAGGACACGTGATGGT, TAGTACACGTGAGTCT, ATTTTCACGTGGAACG

Relative binding free energy, -0.05 kcal/mol:
GTAAGCACGTGGATTA

Relative binding free energy, -0.12 kcal/mol:
AAGTCCACGTGGGGAG, AGACACACGTGGGGGG

Relative binding free energy, -0.1 kcal/mol:
GGTAGCACGTGTTAGA, TCGTGCACGTGGTAGT, AGGGGCACGTGATGCG

Relative binding free energy, -0.27 kcal/mol:
GTCCCCACGTGGGGGG

Relative binding free energy, -0.01 kcal/mol:
AGTTGCACGTGTTATG, GGTGGCACGTGTCTTG, GTATGCACGTGTAGTA, GGTCGCACGTGAAGGT, TCGATCACGTGGGGGT, GAAGGCACGTGGAGCG, AGCGTCACGTGCAGGG

Relative binding free energy, 0.46 kcal/mol:
GGTTTCACGTGAGTGT, TTAATCACGTGAAGCT

Relative binding free energy, 0.06 kcal/mol:
TGAGTCACGTGCAGGG, AGAGTCACGTGGGTTA, GTCTCCACGTGGTAGT

Relative binding free energy, -0.23 kcal/mol:
AGTACCACGTGGGGGC

Relative binding free energy, 0.28 kcal/mol:
CGATGCACGTGAAGGG, AGTTACACGTGAGTTG, GTTTACACGTGTAGCA, GTGAACACGTGAGGTT

Relative binding free energy, 0.3 kcal/mol:
AGATTCACGTGGAGGT, TTCTTCACGTGTGGCT, AGACTCACGTGATGTG

Relative binding free energy, 0.09 kcal/mol:
AATCGCACGTGGATTG, GCGTGCACGTGGAGAG, GTGGTCACGTGGGGGA, GGGGACACGTGGTGAT, TACGTCACGTGGTCTT, GATGACACGTGGGGGA, ATAGACACGTGTCAGT

Relative binding free energy, -0.2 kcal/mol:
CGCGGCACGTGGGAGT

Relative binding free energy, -0.03 kcal/mol:
TAATGCACGTGTAGGT, GTTGGCACGTGTGGAT

Relative binding free energy, 0.18 kcal/mol:
CCTTACACGTGTGTTT, TCATTCACGTGTAGTT, GAGGGCACGTGAATGG, TGGATCACGTGCTTTA, CGGGTCACGTGGTTCG, GAGCTCACGTGGGTGG, TTGTTCACGTGCGTTG
